T1: UNK ZnF1-3 (human, UniProt Q9C0B0 31-174)
T1 sequence: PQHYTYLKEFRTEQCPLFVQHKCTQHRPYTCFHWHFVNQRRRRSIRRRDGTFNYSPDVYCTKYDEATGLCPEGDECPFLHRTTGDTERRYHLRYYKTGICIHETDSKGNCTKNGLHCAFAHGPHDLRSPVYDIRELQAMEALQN

B1: chr4:107013644:107013645:+_ENSMUSG00000057375_ENSMUST00000075693|mus_mus|FALSE|FALSE (ssRNA)
RNA: GGGAGUUCUACAGUCCGACGAUCCACAUAAUGGUAUGUCUUCUCUCCCAGAUGGAUUAGGAAGUUAGAAAGGUUCCCACUAAUUGCUAUGGCAAAGACCAACGUGGCACAUAUCCAAAAGGGACCAUAGAGAUCUGGAUUGCUCAACAGAGGAUUGAGCAUCA
B2: chr10:114658717:114658718:-_ENSMUSG00000020130_ENSMUST00000020339|mus_hu|FALSE|FALSE (ssRNA)
RNA: GGGAGUUCUACAGUCCGACGAUCAAGAUUUUCAAAAGACUGUGAAAGACUCUUAUUCUGACAAUUCACAAGAAGUGUUCUUUUAUCCUGUGGAGAUUCACACAAUACCACAUAUUUUUCAAGAGAUUCAAUCAGUAGUUUGCUCAACAGAGGAUUGAGCAUCA
B3: chr18:48442549:48442550:+_ENSG00000082212_ENST00000321341|hu_mus|FALSE|FALSE (ssRNA)
RNA: GGGAGUUCUACAGUCCGACGAUCAAUUGAUCUAACAUGACCUCUGUCUGAGAUUGAAAUAAACAAUCCCUUAGGUCUCCUAAAGAUGUGCCCAUAUUGACAGCAGGCAAGACCAACUGUUGGCGUGUACACAAUCGGCAUCAGCAACAGAGGAUUGAGCAUCA
B4: chr17:65740002:65740003:+_ENSG00000130935_ENST00000581375|hu_hu|hu_hu_hu_mus_False|18_58 (ssRNA)
RNA: GGGAGUUCUACAGUCCGACGAUCAACAAAUCUUUCUUCCCUGGACGAACAGGAAGAUUCAUAUUAAAAAAAAUAUAUGUCUAUGAAGUUAGGUGUGGUGGCCACACCUUUACUCCCCACUUCAAUUGAGGUGGAUCUCUGAGUCAACAGAGGAUUGAGCAUCA
B5: chr2:202488911:202488912:-_ENSG00000155755_ENST00000286196|hu_mus|hu_hu_hu_mus_False|1_38 (ssRNA)
RNA: GGGAGUUCUACAGUCCGACGAUCAUUGAAACAUUUUUCAUAAUCUCCAGUAGCAUUUCAGCAUUAUGUAACAAAAGCUCAAUUGUAAAUACAUGUAUAUACAUCUUAUACACUUAAAAACACGAGUGGGGAGCGCACAAAUACCAACAGAGGAUUGAGCAUCA
B6: chr10:33190432:33190433:-_ENSG00000150093_ENST00000302278|hu_mus|hu_hu_hu_mus_True|48_88 (ssRNA)
RNA: GGGAGUUCUACAGUCCGACGAUCUACAUUUUCCAAACCUGCAUGUGAGUAAAACCAUGGCCACAGAGCCCCAAAACUACCCUACUGUGACUAUGGAGCUGCUGCUGUGAGCUUGGUGUUGCAAAAUCCGCCUGAGUAGGAUUCCAACAGAGGAUUGAGCAUCA
B7: 184677316_184677436_2214_CDS_ENSG00000116406_ENST00000318130|human|control|control (ssRNA)
RNA: GGGAGUUCUACAGUCCGACGAUCCUGAGCUGGUCCAGCAGUCAAUACUACCCUGCCAAAAAAUGGGUGGGAAACAAUUUGUACAGCUCGUGGAGGCAGCUGCUGUUCUUUUUGUUGCUGACUUGACAAUUCAAUCAUCUCCUGCAACAGAGGAUUGAGCAUCA
B8: chr6:36760027:36760028:-_ENSMUSG00000029838_ENSMUST00000101534|mus_mus|FALSE|FALSE (ssRNA)
RNA: GGGAGUUCUACAGUCCGACGAUCUAUCGCUGGCUGAUGCUCCUGCCUGGGCGGCUGCGCUCUGCUCUCCCCCCUUCUGGAUGGAUGACUCAGUGCUUUCUUUCUUCCCCUCUCUCCACUUUGGGUUUUCUUGUGCUCUGGGGCCAACAGAGGAUUGAGCAUCA
B9: chr9:120864499:120864500:+_ENSMUSG00000006932_ENSMUST00000007130|mus_hu|FALSE|FALSE (ssRNA)
RNA: GGGAGUUCUACAGUCCGACGAUCAUAAUUAUUGCAAGUGAGGUUAGAAAGAAUUCCAGCUGCACAGGUGACCACAUUUAUAUCAUCUGAACCCAGAAGCUGAACAAGAGUCCCAAGGAGACCUUCCAUCCCUUCCUGUUUAGUCAACAGAGGAUUGAGCAUCA
B10: 123199738_123201729_3909_CDS_ENSG00000136861_ENST00000349780|human|control|control (ssRNA)
RNA: GGGAGUUCUACAGUCCGACGAUCGCCAUCCUUAAUCUGCUGCCGUUGAAGGGAGAGCUCCCUGGCUUGGGACUGAACUAAUGAAUCGUAUCUGGGAGGUGAGAGAUCUCUGAACUUAUUCUGCAGAUUAUGGAUCUCACUGAACAACAGAGGAUUGAGCAUCA
B11: chr22:32879901:32879902:+_ENSG00000100225_ENST00000397426|hu_mus|hu_hu_hu_mus_False|18_78 (ssRNA)
RNA: GGGAGUUCUACAGUCCGACGAUCCUCUUCCAUACUCAUGGCAUCCUGAAUUGACUCAGCUUCAAAAUUUUGACUAGGCCCUUCCAUACUGUCAUCAGUCCAGGCAUCAAAUGGGGUUGCCUGUCCUUGGGAUGAAUCAGUCCCCAACAGAGGAUUGAGCAUCA
B12: chr7:116176368:116176369:+_ENSMUSG00000031028_ENSMUST00000033341|mus_mus|FALSE|FALSE (ssRNA)
RNA: GGGAGUUCUACAGUCCGACGAUCCAGACAGACACACACACACAGACACAGAGCACCUUGGAGCCAGAAGGACAGAAAAAGCUAGACUUGGAGAGGAGCUGGGGAAGCUAACAUCACCACUCUGCAGAAGAACUGGUUUGGAGCCAACAGAGGAUUGAGCAUCA
B13: chrX:41000244:41000245:+_ENSG00000124486_ENST00000378308|hu_hu|motif|central (ssRNA)
RNA: GGGAGUUCUACAGUCCGACGAUCUGCUUCUUUUUUCAGUUCUUCAUCAGUUAAGUUUUCUAAAAACUGUGGAACCAUUUCGGUUAUUGGAAGAAAGUACUUUUUCACUGUAUGAAGAGUGAGAAACUCAUAGCAUUGCCCAAACAACAGAGGAUUGAGCAUCA
B14: chr10:33190432:33190433:-_ENSG00000150093_ENST00000302278|hu_mus|hu_hu_hu_mus_True|1_38 (ssRNA)
RNA: GGGAGUUCUACAGUCCGACGAUCUACAUUUUCCAAACCUGCAUGUGAAUAAAACCCUGGCCACAGAGCCCCAAAACUACCCUACUGUGACUAAGAUAAUUGCUACUUGAGCUUGGUGUUGCAAAAUCCGCCUGAGUCAGUACUCAACAGAGGAUUGAGCAUCA
B15: chr14:66974463:66974464:+_ENSMUSG00000022044_ENSMUST00000074523|mus_hu|mus_mus_mus_hu_False|48_48 (ssRNA)
RNA: GGGAGUUCUACAGUCCGACGAUCUUGUAGGACGACUUAUUCAGGGGAUCGGCCAGGAAGCAGGAGCAGAACAAGGACACCAGCGGGAGUUCCUUCAUCUUCUCUUUGUAGGCAGCAAGGGUCAUGUUUCUGGGAUCUGGUGGCCAACAGAGGAUUGAGCAUCA
B16: chr17:24776569:24776570:-_ENSMUSG00000002504_ENSMUST00000002572|mus_mus|FALSE|FALSE (ssRNA)
RNA: GGGAGUUCUACAGUCCGACGAUCAGAGAGCCUAGGCUCUGCAUUCCAGAACCCAGCAUGUGGGAGGUAGCACAGGGGUAGCUAGGCAGAGAAGAGAGGCCUGGCCUAGGGACCAUCCCAUGUGAGGGAUGGGGCAGAGGGACACAACAGAGGAUUGAGCAUCA
B17: chr2:202488911:202488912:-_ENSG00000155755_ENST00000286196|hu_mus|hu_hu_hu_mus_False|18_98 (ssRNA)
RNA: GGGAGUUCUACAGUCCGACGAUCAUUGAAACAUUUUCAUAAUAUUGCAGUAGCAUUUCAGCAUUAUGUAACAAAAGCUCAAUUGUAAAUACAUGUAUCUUAUAAAAAUACACUUAAAUUUAAAAACGGGGAGCGCAGGCGCCACAACAGAGGAUUGAGCAUCA
B18: 62233625_62233745_1228_CDS_ENSMUSG00000020074_ENSMUST00000020268|mouse|control|control (ssRNA)
RNA: GGGAGUUCUACAGUCCGACGAUCCUGCACUGUGUACCGUGGAACGACACGACGGACUCUCCGAGGGGAGCGCUCUCUUUCUCUCCGGGGUGACCUCUCCCGGGAACGUUUCCUCUGAGGUGAUCUUUCUCUAGAUCUGCGUCUCAACAGAGGAUUGAGCAUCA
B19: chr18:56900473:56900474:+_ENSMUSG00000024590_ENSMUST00000025486|mus_hu|FALSE|FALSE (ssRNA)
RNA: GGGAGUUCUACAGUCCGACGAUCAACAUCAAUUUCUUCGAUGCAAACAUUUCCAGUGGCUGAGGCGGAAUGAGAGAUGCUAACACUACUACUCGCCUCUGAUUCUUCCACAUCAACCCUCUUCCGCUUUCCUCUAGUUGUACGCAACAGAGGAUUGAGCAUCA
B20: chr7:54823571:54823572:-_ENSG00000132432_ENST00000352861|hu_mus|hu_hu_hu_mus_False|1_8 (ssRNA)
RNA: GGGAGUUCUACAGUCCGACGAUCUCCCAUGAUAGCAAAUCCUAUAGCUGUAGCCAUGGCAAUCUUCUGGAAUUCUUUUCUGUCGGGUUUGGUGCAUCUUUUAACCAGCCGAAUUGAGUCCUUUACAAACUGCCGACUUGGCUCCAACAGAGGAUUGAGCAUCA
B21: chr16:94664741:94664742:+_ENSMUSG00000040785_ENSMUST00000117648|mus_hu|mus_mus_mus_hu_False|18_78 (ssRNA)
RNA: GGGAGUUCUACAGUCCGACGAUCUGGUACUGAUCUUGGUAGCUGAUAUUCAGGAGAAAUGUUGGCCAAGGGUGUAUAUAUGCUGGUGUACUGGGGCAAACCUGGUAACACGUUUAUGUACGCUGGUGGUGUCUGGGUGAUAUCCAACAGAGGAUUGAGCAUCA
B22: chr1:39494564:39494565:+_ENSG00000168653_ENST00000372967|hu_hu|hu_hu_hu_mus_True|8_68 (ssRNA)
RNA: GGGAGUUCUACAGUCCGACGAUCAUGCAUUCGCCUCAUCGUUUUGUACCGAAGCAAGCACUCUUCGAAAUCAUCAUACUCUAUCUUGCACUCCUUUUUCGCCCGGGUCCCACCGAUCCCGUGUGCACAUUCUAUCCACUCUUUCAACAGAGGAUUGAGCAUCA

Some of the results follow.

We go through 22 molecules from paper PMC12136788.

The assay concerns the target T1, UNK ZnF1-3. Description: nsRBNS (natural sequence RNA bind-n-seq); RBNS binding buffer (assumed for nsRBNS): 25 mM Tris pH 7.5, 150 mM KCl, 3 mM MgCl2, 0.01% Triton X-100, 500 ug/ml BSA, 20 U/ml SUPERase-In, 4 C; UNK is unkempt and MSI1 is Musashi-1; names of the RNAs are library labels; protein concentration not given here; high values mean tight binding.
Turning to B1, the binding signal worked out at 1.09 enrichment R.

B2 returned a binding signal of 0.617 enrichment R.

B3 gave a binding signal of 0.933 enrichment R.

Take B4: the binding signal is 0.888 enrichment R.

As to B5, the binding signal amounted to 1.48 enrichment R.

B6: the binding signal amounted to 0.83 enrichment R.

The molecule B7 yielded a binding signal of 1.06 enrichment R.

With B8, the binding signal stood at 0.637 enrichment R.

Consider B9, for which the binding signal is 1.04 enrichment R.

Regarding B10, the binding signal was determined as 1.23 enrichment R.

As for B11, the binding signal amounted to 0.971 enrichment R.

As to B12, the binding signal was 2.69 enrichment R.

B13 showed a binding signal of 0.724 enrichment R.

With B14, the binding signal was found to be 0.874 enrichment R.

As for B15, the binding signal worked out at 2.5 enrichment R.

B16 gave a binding signal of 1.07 enrichment R.

As to B17, the binding signal is 2.2 enrichment R.

On to B18, for which the binding signal was determined as 0.51 enrichment R.

On to B19, for which the binding signal turned out to be 0.954 enrichment R.

In turn, B20 displayed a binding signal of 0.79 enrichment R.

B21 yielded a binding signal of 0.888 enrichment R.

B22 came in with a binding signal of 0.655 enrichment R.
